± gives the standard deviation of the averaged measurements. Whole data set: some 4,100 sequences, median “arbitrary fluorescence units” near 780, cut for the highest 2% near 22,000. This is one part of the list.

The assay has as its target T1, ETS1 (UniProt P14921).
T1 sequence: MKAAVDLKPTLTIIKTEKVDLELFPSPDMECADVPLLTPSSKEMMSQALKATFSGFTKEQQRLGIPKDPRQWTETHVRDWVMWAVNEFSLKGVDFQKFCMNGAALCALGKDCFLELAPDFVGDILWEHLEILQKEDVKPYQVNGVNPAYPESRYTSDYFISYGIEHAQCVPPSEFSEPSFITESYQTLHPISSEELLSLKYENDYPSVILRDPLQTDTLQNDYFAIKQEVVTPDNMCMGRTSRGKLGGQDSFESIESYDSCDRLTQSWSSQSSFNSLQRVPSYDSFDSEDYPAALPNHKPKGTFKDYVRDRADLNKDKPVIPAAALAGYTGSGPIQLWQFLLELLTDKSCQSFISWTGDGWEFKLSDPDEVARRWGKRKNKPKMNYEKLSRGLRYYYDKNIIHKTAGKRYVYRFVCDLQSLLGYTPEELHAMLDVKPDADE
The experiment in a line: ETS1 binding intensity (PBM fluorescence), ETS1 alone (arbitrary fluorescence units); higher = stronger binding. The following applies: ETS1 concentration 1 nM; RUNX1 concentration 0 nM. On the procedure: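 gcPBM on 36-bp genomic-derived probes (partner site mutated) containing one ETS1 site and no RUNX1 site. Recombinant human ETS1 (1 nM) was incubated alone or with RUNX1 (25 nM) and detected by anti-ETS1 antibody fluorescence. Values are medians over 4 replicate spots (not normalised). The probes sit in constant array flanks that are not printed.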
Sequence GGAGGAACAACCCCTGGTTGTCCACGTTCCGGTCGT had an ETS1 binding intensity of 316. The value for CGCCGGATGCATAAAAGACTGGCTTCGGTGGCTCAG was 1410; that for AGGTACAACACCAGACGGTAGGCCAGGAAATCGCAG was 407; that for CAACTCACATCCTCTGGCAACAACGACTAATCCACT was 3570.

In turn, CAACTGACCGGACAGAACACAGCTACAAAACACGAG displayed an ETS1 binding intensity of 482 ± 52.

Regarding CCTGGAGCCTGTAGGCTTGGCTGCTTCCGCTAGCAG, the ETS1 binding intensity was found to be 960.

Regarding GCCCTCGGCACGCACATTCTATCCGGCTAACCAGCT, the ETS1 binding intensity is 463. In the case of GACTTCAGTGGATAACTCTGGAGAGCAGGAAATGGG, the ETS1 binding intensity was 649. Then AAGCACTTGTAGTTGGCACCAGCTTTTCCTGTGCTC, with 379; and CTCATGCACCGCCTGCACGTCCCAGGATGCGCTGCA, with 417; and TCTGCAGCTTTCTCTCCCCAGCCACATCCGCCATTC, with 775. Then GAGGGGAGGAAGGCCTGGCTCGGGCTGGGCCCCAGC, with 417.

The sequence CGAGGTGGAATCCGCAGCAGGAAGTGGGACGACAGA registered an ETS1 binding intensity of 3040. The value for TTATTTCCTCTTTTTTTTTTTTTTTTTGGATTTGCT was 7430; that for TCTGAGAATGCAGGATATGTGTGTGCTCTCTAGTCA was 635; that for GATCACAAAATCCACTCGTTTCCTGTCCACAGCTAG was 5970. Then GTCGCTGCTGTTTTGGGGTTGGCATCCTGTCCTCTG, with 708; and GGTGTGACAACTACAAACAGCTTCCTGCCAGAGTCC, with 2540. With CAGCAACATGCCCGAAGAGAATTCTTCCGGAGGCGG, the ETS1 binding intensity was found to be 641.

GCTCAACTCACCCTCAGAACATGAGGATGTTATACA yielded an ETS1 binding intensity of 460. The value for ACCGCTGAGGCGGATTCCCACCGACTTCCTTTCCAT was 554.

Sequence GCCGGCGACATCCTCCCTTTGTAGGCGCTCCCTGCA had an ETS1 binding intensity of 2380. The value for GAAGTGGTGGCGGGCGCAGGCCAGGAAGGACAAGTG was 406; that for ATCAGTCAACTTCCCCCACTCCCTCCCACGAAGAAA was 1180. The value for GGCGCGCGAGACCCTCAGACAGCGGAACTGGAGCCC was 366; that for AACCTCCGACTTCCGGCCGCGCAGCGGAGGGCTGAG was 32100; that for TCCTGTCTTCGTGGCTCCGGAAAGGCGTTTGGGATG was 413. In the case of AGGGTGTGGAGGAAGTGGCTTACAAGCACTTTGTCT, the ETS1 binding intensity turned out to be 1400. Take CAACCCAAGGGGATGTGCTCACTGGGGTGAGGAGGC: the ETS1 binding intensity is 412. Then CCATTTCCGCGCACGTCTGCAGATTCGGTAGTCGAT, with 9320; and TCCCCCAGCGCACAGGCAAACCATTTCCTCTTCTGC, with 1060; and AATGAGCCCCAGAACCCTTTTCCTTCCGGCCTGCAC, with 1300. Then GTTTACAAATCCAAGCCCTTGACGTCTTCCTGGACC, with 347. Then CAGGCTGCTGTTGAAATGCATCAGCTCTTTCCTGCC, with 372; and CCCCCTGGGGTACAAATGTCCCGGAAGCCGCGAACC, with 1040. The sequence TACTTAGAGGAAATGTGGCCTGTTGTCTTGTCTCAC registered an ETS1 binding intensity of 795. Then ACTGCCGAAACTAGGGGCAGCTCTACTTCCGGTGCC, with 10100.

Regarding CACCCTGGCCGTGGTGAGTTCCGCCTGCTTGGGGAT, the ETS1 binding intensity was found to be 583. Then CTTCAAAGTCAGGAAACCGTTAAACTACACTGCATC, with 683 ± 79; and CCAACAGTACCCTTCCTCCCTTAACCCCAAGACTGA, with 509; and GGCCTCAGCGGCGCCGCGACAGGAAGCGGCGGGCGA, with 2020.

Sequence GGTTTCCGGGTGAAAAAAAAAAAAAAATCCACGCCA registered an ETS1 binding intensity of 15200. Then GCGGGAGTGCAGTCTGTGCCGTTCCGGCCAGGAGTT, with 283; and TTTTTTCCGCCTGTAGGGTCACATTGGGGTTGATTG, with 2790. The value for CCCCGTCCGGGGAGGAGCGAGGCCCGAGGTTGTCCC was 693; that for CAGTAGGCTGCTGTTGCGCGCGCCGGATGTGGGCCC was 1160; that for GCGGGAGGCTTCCTCACATTAGCGCTCCGCGTAAGT was 498. The value for CGGCCTGCAGCAGAACAGCCAGCGCACTTCCTCCTC was 512; that for GCACAGCGCTCTATTTCACCTCAGGAAGCTTCCCCC was 329. The sequence TCCCCCACTTCCTGGCAGCAGCAGTGTGCTGAGGAG gave an ETS1 binding intensity of 11000.

CCATTGGCGGGCGGCTTGAATGACGGAAGTGACGGC gave an ETS1 binding intensity of 872. Then AGGCCCGGATACCCGCCCCCAAATCCGCGTCCACAA, with 584.

The sequence CTGCCAACCTGTGAGCGCCTGGCTTCCTGCCTGGGC yielded an ETS1 binding intensity of 1020. Then TGAAGGAAGGGGGCTGTTTGCAGATAATCACAGCCT, with 432; and CTCCGCTCACAGCAACACAGGCGCTTCCTTGTGCAG, with 521; and GTTGCAAAGGCGCCTACAACTACTTCCGCTTCTAGT, with 4670.

Consider GGCACAGCTTGTAGCCAGAGGGAGGAAGAGAGAGGA, for which the ETS1 binding intensity worked out at 354.

Sequence TGCCACATCCTGCCCCTCCCCAGGTCTAAGCACCAA displayed an ETS1 binding intensity of 12400. TTGGGGTTTATACCCCATCTACTTTCAGGAAGGGTT displayed an ETS1 binding intensity of 349.

Sequence ATAAAGGATGTACAGTATTTAGAGAACAGTGGATAA came in with an ETS1 binding intensity of 909.

Consider AAAGACAGGATGTGGGGGAGTGAGCTACAAGGGCCC, for which the ETS1 binding intensity is 6650 ± 640. With ATTTAGGAGGAAGTTTCCAGTACGACAACCTCACAG, the ETS1 binding intensity turned out to be 641. The value for ATCCCCAAGCAGGCGGAACTCACCACGGCCAGGGTG was 327.
